Laboratory results from patent publication US20240043491A1 (Merck Sharp & Dohme, published 2024).

T1: human IL-2Rβ, polyhistidine-tagged (human, UniProt P14784 27-239)
T1 construct: Used as the analyte in SPR; also called IL2-RP; CD122; not shown: polyhistidine tag
T1 sequence (looked up): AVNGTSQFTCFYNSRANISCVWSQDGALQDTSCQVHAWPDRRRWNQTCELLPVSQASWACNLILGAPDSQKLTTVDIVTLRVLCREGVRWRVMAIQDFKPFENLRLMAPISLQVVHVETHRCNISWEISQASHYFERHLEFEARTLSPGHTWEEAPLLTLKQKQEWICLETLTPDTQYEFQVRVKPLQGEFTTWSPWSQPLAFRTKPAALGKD

T2: human IL-2Rα, polyhistidine-tagged (human, UniProt P01589 22-213, limits assumed)
T2 construct: Used as the analyte in SPR; also called IL2-Ra; CD25; not shown: polyhistidine tag
T2 sequence (looked up): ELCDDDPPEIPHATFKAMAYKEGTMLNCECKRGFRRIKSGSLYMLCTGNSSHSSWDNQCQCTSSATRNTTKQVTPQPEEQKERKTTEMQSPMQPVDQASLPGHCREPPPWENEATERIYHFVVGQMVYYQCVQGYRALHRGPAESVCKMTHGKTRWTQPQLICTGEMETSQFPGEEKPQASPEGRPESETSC

B1: 48BMP (bivalent) (Fc fusion)
chain: [letters of human IgG1 Fc with L234A L235A D265S (EU numbers) omitted]GGGGSGGGGSPASSSTKKTQLQLEHLLLNLQMILNGINNYKNPKLTRMLTFKFYMPKKATELKHLQCLEEELKPLESALNLAPSKNFHLRPRDLISNINVIVLELKGSETTFMCEYADETATIVEFLNRWITFSQSIISTLT
notes: Bivalent homodimer; IL-2 T3A D20N E68S V69A Q74P C125S; also called bivalent version of 49BJO
B2: 54BGO (bivalent) (Fc fusion)
chain: [letters of human IgG1 Fc with L234A L235A D265S (EU numbers) omitted]GGGGSGGGGSPASSSTKKTQLQLEHLLLNLQMILNGINNYKNPKLTRMLTFKFYMPKKATELKHLQCLEEELKPLEEALNLAPSKNFHLRPRDLISNINVIVLELKGSETTFMCEYADETATIVEFLNRWITFSQSIISTLT
notes: also called bivalent version of 43BGO
B3: 21BMT (bivalent) (Fc fusion)
chain: [letters of human IgG1 Fc with L234A L235A D265S (EU numbers) omitted]GGGGSGGGGSPASSSTKKTQLQLEHLLLNLQMILNGINNYKNPKLTRMLTFKFYMPKKATELKHLQCLEEELKPLESVLNLAPSKNFHLRPRDLISNINVIVLELKGSETTFMCEYADETATIVEFLNRWITFSQSIISTLT
notes: Bivalent homodimer; IL-2 T3A D20N E68S Q74P C125S; also called bivalent version of 65BJO

Molecular target: T1, human IL-2Rβ, polyhistidine-tagged
Experiment: SPR, Biacore T200; IL-2 Fc fusion captured on anti-human IgG Fc surface, His-tagged receptor as analyte
Experimental: (§1) A surface plasmon resonance (SPR) assay on a Biacore T200 (Cytiva) instrument was used to determine the binding affinities of IL-2 muteins against polyhistidine-tagged IL-2 receptors. Biacore T200 Evaluation Software was used to fit each titration series to a 1:1 binding model or steady state affinity. The association rate constant (kₒₙ, M⁻¹ s⁻¹) and dissociation rate constant (koff, s⁻¹) were determined for each set of titrations and used to calculate the dissociation constant, KD=koff/kₒₙ, of each IL-2 mutein against each receptor.
(§2) To measure the affinity of the IL-2 Fc muteins and the WT-IL-2 Fc fusion control for IL-2 receptors, the IL-2 Fc fusion was captured on an anti-human IgG Fc antibody surface followed by the IL-2 receptor as analyte. Exemplary IL-2 muteins 86BCH, 43BGO, 44BGO, 47BJO, 48BJO, 49BJO, 65BJO, 44BJP, 45BJP, 46BJP, and 47BJP are monovalent, whereas 54BGO is a bivalent version of 43BGO, 48BMP is a bivalent version of 49BJO, and 21BMT is a bivalent version of 65BJO. 86BCH contains a T to A substitution corresponding to position 3 and a C to S substitution corresponding to position 125 of wild type human IL-2 (SEQ ID NO:39) and was used as a control. The other exemplary IL-2 muteins all contain the same T to A and C to S substitutions, corresponding to positions 3 and 125 of wild type human IL-2, respectively. The positions of such substitutions are according to wild type human IL-2 amino acid sequence (SEQ ID NO:39).

Row | binding result | Binder
1 | no binding (tested: 3 µM) | B1
2 | no binding (tested: 3 µM) | B2
3 | no binding (tested: 3 µM) | B3

Molecular target: T2, human IL-2Rα, polyhistidine-tagged
Experiment: as above
Experimental: as §1, §2

Row | Kd [nM] | Binder
4 | 9.8 | B1
5 | 1.9 | B2
6 | 97 | B3
